# Measured values from PubChem BioAssay AID1508642 (National Center for Advancing Translational Sciences (NCATS), 2021).
# The campaign covered roughly 43,000 compounds. About 200 (0.47%) were called active. About 12% were inconclusive and are not listed. The call rests on the fitted dose curve; in most records, active means well fitted cell-killing curve with a large enough effect; inconclusive means small, poorly fitted or top-dose-only effect, or effect the other way; inactive means flat fitted curve, though single readings scatter. The list shows a part of the results.
# Experiment: Cell viability qHTS assay in S16 Pmp22-F2sN cells; further: nearly all actives have a fitted effect of over 65% in size
# Details: S16 Pmp22-F2sN Schwann cells viability, CellTiter-Glo, 24 h; series mostly up to 57.5 µM; activity change, negative = cytotoxicity: at the top concentration
# In short: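 S16 Pmp22-F2sN Schwann cells (500-1,000/well) in phenol-red-free DMEM with 10% FBS received 23 nL compound by pin tool for 24 h at 37 °C. Viability was then read as CellTiter-Glo luminescence after 15 min at room temperature.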
# On the % scale 0 is the no-effect control and ±100 the full control effect.
row,SMILES,"activity change, negative = cytotoxicity"
1,CCc1ccccc1NC(=O)Nc1cc(C(=O)NCc2ccc(OC)cc2)ccc1N1CCCC1,inactive: -0.237%
2,O=C(c1ccccc1)n1nc(-c2ccco2)nc1NCc1ccccc1Cl,inactive: -11.4%
3,COc1ccc(N(C(=O)COc2ccccc2OC)S(=O)(=O)c2ccc(Cl)cc2)cc1,inactive: -27.5%
4,CCOc1ccc(CNC(=O)C2CCN(c3nn4c(=O)cc(C)nc4s3)CC2)cc1,inactive: 11.4%
5,CCOCCCNC(=O)c1cc2c(=O)[nH]c3ccccc3c2n1C,inactive: 9.35%
6,CCOc1ccc(CCNC(=O)C2CCC(CNS(=O)(=O)c3ccc(Cl)cc3)CC2)cc1OCC (stereo unspecified),inactive: 11.2%
7,COc1cccc(-n2cc(C(=O)Nc3cc(C)c(Cl)cc3OC)c3ccccc3c2=O)c1,inactive: -8.93%
8,N#Cc1c(Nc2cccc(F)c2)sc(C(=O)c2ccc(Cl)cc2)c1N,inactive: -9.81%
9,Cc1ccc(C)c(CN2C(=O)CSc3ccc(C(=O)NCCc4ccc(Cl)cc4)cc32)c1,inactive: 27.4%
10,CCCNC(=O)Cn1nc(-c2ccc(C)c(C)c2)c2cnc3ccc(F)cc3c21,inactive: 3%
11,Clc1ccc(CNc2cc(-c3ccccc3)nc3nncn23)cc1,inactive: -23.4%
12,O=C(Nc1cccc(C(F)(F)F)c1)Nc1nnc(N2CCCCC2)s1,inactive: -14%
13,COc1ccc(-c2nc3sc(CCNS(=O)(=O)c4ccc(F)c(C)c4)c(C)n3n2)cc1,inactive: -25.9%
14,COc1ccccc1CNC(=O)CN1C(=O)CCn2nc(-c3ccccc3)cc21,inactive: 3.92%
15,Cc1ccc(OCC(=O)Nc2ccc3nc(Nc4cccc(Cl)c4)cc(C)c3c2)cc1,inactive: -4.56%
16,Cc1c(-c2ccc(Cl)cc2)c(=O)oc2c(CN3CCCC3)c(O)ccc12,inactive: -6.88%
17,COc1ccc(N2CC(NC(=O)c3ccc(OC(C)C)cc3)CC2=O)cc1 (stereo unspecified),inactive: 19.7%
18,CCn1nc(C)c2c(-c3ccccc3)cc(=O)n(C(C)C(=O)NCc3ccc(C)cc3)c21 (stereo unspecified),inactive: -10.3%
19,CCCCCNC(=O)CCn1c(=O)[nH]c2ccccc2c1=O,inactive: -1.89%
20,CCN(CC)c1ccc(NC(=O)c2cc3c(=O)n4cccc(C)c4nc3n2C)c(C)c1,inactive: 11.7%
21,Cc1cc(S(=O)(=O)NCC(c2ccc(N(C)C)cc2)N2CCOCC2)ccc1F (stereo unspecified),inactive: 1.21%

row,SMILES,"activity change, negative = cytotoxicity"
1,O=C(CSC1=Nc2ccccc2N=C(c2ccc(F)cc2)C1)NCc1ccc(Cl)cc1,inactive: 9.58%
2,Cc1ccc(CN(C(=O)COc2ccc(Cl)cc2Cl)C2CCS(=O)(=O)C2)o1 (stereo unspecified),inactive: -0.0946%
3,Cc1[nH]c(=O)[nH]c(=O)c1S(=O)(=O)N1CCN(c2cccc(Cl)c2)CC1,inactive: -0.0832%
4,CCCCNC(=O)CN1C(=O)COc2ccc(S(=O)(=O)N3CCCC3)cc21,inactive: -1.29%
5,COc1ccc(CNC(=O)CN2C(=O)CSc3ccc(S(=O)(=O)N4CCCC4)cc32)cc1,inactive: -4.3%
6,CSc1cccc(NC(=O)Cn2cnc(S(=O)(=O)N3CCCC3)c2)c1,inactive: 4.81%
7,O=C(Nc1ccccc1OCc1cc(=O)n2ccccc2n1)c1ccccc1F,inactive: 1.15%
8,CCCn1c2ccccc2c2cnn(CC(=O)NCc3cc(OC)ccc3OC)c(=O)c21,inactive: 15%
9,COc1ccc(Cl)cc1NC(=O)N1CCC(CN2CCCCCC2)CC1,inactive: -2.46%
10,CCc1ccccc1NC(=O)C(C)n1nc(-c2ccc(C)c(C)c2)ccc1=O (stereo unspecified),inactive: -0.666%
11,Cc1cccc(Cn2cc(C(=O)Nc3ccc(S(N)(=O)=O)cc3)ccc2=O)c1,inactive: -5.68%
12,COc1ccc(NC(=O)CN(C)S(=O)(=O)c2cccc3nsnc23)cc1,inactive: -22.5%
13,COc1ccc(CNC(=O)C(=O)NCC(c2ccco2)S(=O)(=O)c2ccc(C)cc2)cc1 (stereo unspecified),inactive: -26.3%
14,COC(=O)c1ccc(Cn2nnc3sc4c(c3c2=O)CCCC4)cc1,inactive: -5.77%
15,COc1cc2nc(Nc3ccc(F)cc3)nc(N)c2cc1OC,inactive: -0.198%
16,CCOC(=O)c1cccc(NC(=O)C(Cc2ccccc2)NS(=O)(=O)c2cccc3nsnc23)c1 (stereo unspecified),inactive: -2.24%
17,Cc1cccc(NC(=O)C2CCN(S(=O)(=O)c3ccc4c(c3)CCCC(=O)N4)CC2)c1,inactive: 6.42%
18,CCCNC(=O)C1CCC(Cn2c(=O)c3sccc3n(CC(=O)Nc3ccccc3C)c2=O)CC1 (stereo unspecified),inactive: 2.27%
19,CCCN(C(=O)c1sc2nc3n(c(=O)c2c1C)CCCC3)c1ccccc1C,inactive: -1%
20,Cc1ccc2c(c1)CC(C)N2S(=O)(=O)c1nnc(NC(=O)C(C)C)s1 (stereo unspecified),inactive: 8.17%
21,COc1ccc(NC(=O)Cn2cc(C(=O)C3CCCCC3)c3ccccc32)cc1,inactive: -0.373%

row,SMILES,"activity change, negative = cytotoxicity"
1,Cc1c(Cl)cccc1NC(=O)C(=O)NCC(c1cccnc1)N1CCN(c2ccccc2)CC1 (stereo unspecified),inactive: -22.6%
2,COc1ccc(-c2cc(C(F)(F)F)nc(SCCC(=O)Nc3cccc(O)c3)n2)cc1,inactive: -6.33%
3,Cc1cc(=O)n(CC(=O)Nc2cccc([N+](=O)[O-])c2)c(-n2nc(C)cc2C)n1,inactive: -1.77%
4,CCc1noc(-c2ccc(N(C)Cc3ccc(OC)cc3)c([N+](=O)[O-])c2)n1,inactive: -28.6%
5,COc1ccc(OC)c(NC(=O)N2CCC(N3CCN(Cc4ccc(F)cc4)C(=O)C3=O)CC2)c1,inactive: 6.59%
6,CCc1ccc(Nc2cc(C(=O)NCCCN(C)c3ccccc3)c3ccccc3n2)cc1,inactive: 15.3%
7,COC(=O)c1c(NC(=O)c2cc3nc(-c4ccc(Br)cc4)cc(C(F)(F)F)n3n2)sc2c1CCCC2,inactive: 0.932%
8,COc1ccccc1CNC(=O)c1cc2cc(C)ccc2n1C,inactive: -18.7%
9,CN(C)c1cccc(C(=O)N2CCC(c3ccncc3)CC2)c1,inactive: -0.238%
10,COCCNc1ncnc2onc(-c3ccc(F)cc3)c12,inactive: -0.299%
11,CC(C)Oc1ccc(C(=O)N2CC(=O)Nc3ccc(F)cc3C2c2ccc(F)cc2)cc1 (stereo unspecified),inactive: -8.87%
12,CCOc1ccc(CNC(=O)CN2C(=O)C3CCCCN3c3ccc(C(=O)N4CCCC4)cc32)cc1 (stereo unspecified),inactive: 7.97%
13,CCc1cccc(C)c1NC(=O)C(CC)n1ncn2c(cc3cc(C)ccc32)c1=O (stereo unspecified),inactive: 1.83%
14,CCOc1ccc(CNC(=O)c2cnc3sc(N4CCCCCC4)nn3c2=O)cc1OC,inactive: 10.5%
15,Cc1ccc(S(=O)(=O)c2nc(S(=O)(=O)c3ccc(C)cc3)c(NC(C)C)s2)cc1,inactive: -1.36%
16,Cc1ccc(C)c(NC(=O)Cn2c(=O)n(Cc3ccc4c(c3)OCO4)c(=O)c3ccc(C(=O)NC4CCCCC4)cc32)c1,inactive: 11.3%
17,O=C(O)CCc1ccc(-c2cccs2)n1CC(=O)Nc1ccccc1C(F)(F)F,inactive: 4.11%
18,O=C(CSc1nc(-c2ccccc2)nc2c1CCCC2)c1ccc(Cl)cc1,inactive: 15.6%
19,COc1ccc(Cn2ccc3nc(C)c(C(=O)N4CCN(c5cc(C)ccc5C)CC4)cc3c2=O)cc1,inactive: -12.6%
